# Laboratory results reported in publication PMC12820563.
# The other results are listed elsewhere or left out. The list includes weakly bound sequences.
# Molecular target: T1, MBP-FoxP3dN (UniProt Q99JB6)
# T1 sequence: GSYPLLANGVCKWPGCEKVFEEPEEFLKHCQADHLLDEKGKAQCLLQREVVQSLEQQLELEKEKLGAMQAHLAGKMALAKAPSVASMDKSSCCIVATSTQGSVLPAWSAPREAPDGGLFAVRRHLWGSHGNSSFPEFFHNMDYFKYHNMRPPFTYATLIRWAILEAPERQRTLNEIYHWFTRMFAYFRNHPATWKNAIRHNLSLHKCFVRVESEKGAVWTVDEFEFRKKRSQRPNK
# Assay: PD-seq (MBP pull-down with sequencing)
# Settings: 20 mM Tris-HCl pH 7.5, 100 mM NaCl, 1.5 mM MgCl2, 0.4 uM protein, 0.1 uM dsDNA library, 30 min, room temperature, amylose pull-down; high values mean tight binding; double strand, one strand shown
row,Sequence,binding signal (RPM ratio (pull-down/input))
1,GATGATTGTTCTCCCAGCTGATGAATTCTACGGCTCGAGTAAACAAATTTTCCTAATCTTTCTGTTCAAGCGCCATCTAC,0.251
2,GATGATTGTTCTCCCAGCTGATGAATTGCTCTTGTCGAGTAAACAAATTTTCCTAATCTTTCTGTTCAAGCGCCATCTAC,0.594
3,GATGATTGTTCTCCCAGCTGATGAATTGAAGGGATCGAGTAAACAAATTTTCCTAATCTTTCTGTTCAAGCGCCATCTAC,0.265
4,GATGATTGTTCTCCCAGCTGATGAATTGTCAAAGTCGAGTAAACAAATTTTCCTAATCTTTCTGTTCAAGCGCCATCTAC,0.23
5,GATGATTGTTCTCCCAGCTGATGAATTGGCGGTTTCGAGTAAACAAATTTTCCTAATCTTTCTGTTCAAGCGCCATCTAC,0.642
6,GATGATTGTTCTCCCAGCTGATGAATTGTTTACATCGAGTAAACAAATTTTCCTAATCTTTCTGTTCAAGCGCCATCTAC,8.09
7,GATGATTGTTCTCCCAGCTGATGAATTGTGCAGTTCGAGTAAACAAATTTTCCTAATCTTTCTGTTCAAGCGCCATCTAC,2.67
8,GATGATTGTTCTCCCAGCTGATGAATTCCAGTGATCGAGTAAACAAATTTTCCTAATCTTTCTGTTCAAGCGCCATCTAC,0.436
9,GATGATTGTTCTCCCAGCTGATGAATTGGTCCTTTCGAGTAAACAAATTTTCCTAATCTTTCTGTTCAAGCGCCATCTAC,0.372
10,GATGATTGTTCTCCCAGCTGATGAATTTATGCTGTCGAGTAAACAAATTTTCCTAATCTTTCTGTTCAAGCGCCATCTAC,1.5
11,GATGATTGTTCTCCCAGCTGATGAATTAGACCGTTCGAGTAAACAAATTTTCCTAATCTTTCTGTTCAAGCGCCATCTAC,0.354
12,GATGATTGTTCTCCCAGCTGATGAATTTACACCCTCGAGTAAACAAATTTTCCTAATCTTTCTGTTCAAGCGCCATCTAC,0.624
13,GATGATTGTTCTCCCAGCTGATGAATTGGGTATTTCGAGTAAACAAATTTTCCTAATCTTTCTGTTCAAGCGCCATCTAC,1.57
14,GATGATTGTTCTCCCAGCTGATGAATTCACCACGTCGAGTAAACAAATTTTCCTAATCTTTCTGTTCAAGCGCCATCTAC,0.313
15,GATGATTGTTCTCCCAGCTGATGAATTCACCTCTTCGAGTAAACAAATTTTCCTAATCTTTCTGTTCAAGCGCCATCTAC,0.33
16,GATGATTGTTCTCCCAGCTGATGAATTTTAGCTTTCGAGTAAACAAATTTTCCTAATCTTTCTGTTCAAGCGCCATCTAC,0.989

row,Sequence,binding signal (RPM ratio (pull-down/input))
1,GATGATTGTTCTCCCAGCTGATGAATTTGTAGCCTCGAGTAAACAAATTTTCCTAATCTTTCTGTTCAAGCGCCATCTAC,4.2
2,GATGATTGTTCTCCCAGCTGATGAATTTGGGCCTTCGAGTAAACAAATTTTCCTAATCTTTCTGTTCAAGCGCCATCTAC,1.67
3,GATGATTGTTCTCCCAGCTGATGAATTATCGAAGTCGAGTAAACAAATTTTCCTAATCTTTCTGTTCAAGCGCCATCTAC,0.238
4,GATGATTGTTCTCCCAGCTGATGAATTCAGCATATCGAGTAAACAAATTTTCCTAATCTTTCTGTTCAAGCGCCATCTAC,2.27
5,GATGATTGTTCTCCCAGCTGATGAATTTGTCCTGTCGAGTAAACAAATTTTCCTAATCTTTCTGTTCAAGCGCCATCTAC,3.03
6,GATGATTGTTCTCCCAGCTGATGAATTCCTTTAGTCGAGTAAACAAATTTTCCTAATCTTTCTGTTCAAGCGCCATCTAC,0.332
7,GATGATTGTTCTCCCAGCTGATGAATTAGCGAGATCGAGTAAACAAATTTTCCTAATCTTTCTGTTCAAGCGCCATCTAC,0.318
8,GATGATTGTTCTCCCAGCTGATGAATTCCTAACGTCGAGTAAACAAATTTTCCTAATCTTTCTGTTCAAGCGCCATCTAC,0.305
9,GATGATTGTTCTCCCAGCTGATGAATTCTGAGTCTCGAGTAAACAAATTTTCCTAATCTTTCTGTTCAAGCGCCATCTAC,1.61
10,GATGATTGTTCTCCCAGCTGATGAATTGCCGTCTTCGAGTAAACAAATTTTCCTAATCTTTCTGTTCAAGCGCCATCTAC,0.729
11,GATGATTGTTCTCCCAGCTGATGAATTAACTCACTCGAGTAAACAAATTTTCCTAATCTTTCTGTTCAAGCGCCATCTAC,0.382
12,GATGATTGTTCTCCCAGCTGATGAATTAGTGCCATCGAGTAAACAAATTTTCCTAATCTTTCTGTTCAAGCGCCATCTAC,3
13,GATGATTGTTCTCCCAGCTGATGAATTTTCTCTATCGAGTAAACAAATTTTCCTAATCTTTCTGTTCAAGCGCCATCTAC,0.249
14,GATGATTGTTCTCCCAGCTGATGAATTGACTCTATCGAGTAAACAAATTTTCCTAATCTTTCTGTTCAAGCGCCATCTAC,0.474
15,GATGATTGTTCTCCCAGCTGATGAATTACTACGCTCGAGTAAACAAATTTTCCTAATCTTTCTGTTCAAGCGCCATCTAC,0.334
16,GATGATTGTTCTCCCAGCTGATGAATTGTTTCTATCGAGTAAACAAATTTTCCTAATCTTTCTGTTCAAGCGCCATCTAC,1.25
